Results as given in the supplement of paper PMC7125110.
± gives the standard error. This sample is rich in variants without activity.

B1: glmS ribozyme (parent)
chain: AUAAAAGCGCCAGAACUACAGAAAUGUAGUUGACGAGGAGGAGGUUUAUCGAAUUUUCGGCGGAUGCCUCCAAA

Tests used:
Conditions in all cases: with glucosamine-6-phosphate
[1] = variants of: B1; test: self-cleavage kobs at 640 uM GlcN6P; higher = faster cleavage; RNA array
Method in brief: (§1)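 A hybridised Cy3 probe tracked barcoded ribozyme variants, transcribed in situ by E. coli RNA polymerase on sequenced MiSeq chips, at 37 °C. The variants received 40 μM to 10 mM glucosamine-6-phosphate in HEPES/KCl/Mg(OAc)2 buffer. kobs came from decay fits and kcat and KM from weighted Michaelis–Menten fits.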

[2] = variants of: B1; test: self-cleavage kobs at 160 uM GlcN6P; higher = faster cleavage; RNA array
Method in brief: as §1

[3] = variants of: B1; test: self-cleavage kobs at 2500 uM GlcN6P; higher = faster cleavage; RNA array
Method in brief: as §1

[4] = variants of: B1; test: self-cleavage kobs at 40 uM GlcN6P; higher = faster cleavage; RNA array
Method in brief: as §1

[5] = variants of: B1; test: self-cleavage kobs at 10000 uM GlcN6P; higher = faster cleavage; RNA array
Method in brief: as §1

Variant: A6C C10A G35A C58G C70G
- self-cleavage kobs at 640 uM GlcN6P [1]: 0.000553 ± 0.00014 s⁻¹
- self-cleavage kobs at 160 uM GlcN6P [2]: 4.89e-05 ± 2.3e-05 s⁻¹
- self-cleavage kobs at 2500 uM GlcN6P [3]: 0.000134 ± 4.9e-05 s⁻¹

Variant: C8A G38A G41A
- self-cleavage kobs at 640 uM GlcN6P [1]: < 1e-05 s⁻¹
- self-cleavage kobs at 160 uM GlcN6P [2]: < 1e-05 s⁻¹
- self-cleavage kobs at 2500 uM GlcN6P [3]: < 1e-05 s⁻¹

Variant: A6C G7A G62A C71G
- self-cleavage kobs at 640 uM GlcN6P [1]: < 1e-05 s⁻¹

Variant: A6G A53C G63A A64G
- self-cleavage kobs at 640 uM GlcN6P [1]: < 1e-05 s⁻¹
- self-cleavage kobs at 160 uM GlcN6P [2]: < 1e-05 s⁻¹

Variant: A6G G40U U47C C67G
- self-cleavage kobs at 640 uM GlcN6P [1]: < 1e-05 s⁻¹
- self-cleavage kobs at 160 uM GlcN6P [2]: < 1e-05 s⁻¹

Variant: C8G A14U G66U
- self-cleavage kobs at 640 uM GlcN6P [1]: < 1e-05 s⁻¹
- self-cleavage kobs at 160 uM GlcN6P [2]: < 1e-05 s⁻¹

Variant: G7A G29U A52U
- self-cleavage kobs at 640 uM GlcN6P [1]: < 1e-05 s⁻¹

Variant: C8A U57G
- self-cleavage kobs at 640 uM GlcN6P [1]: < 1e-05 s⁻¹
- self-cleavage kobs at 2500 uM GlcN6P [3]: < 1e-05 s⁻¹

Variant: G60A C61A
- self-cleavage kobs at 40 uM GlcN6P [4]: < 1e-05 s⁻¹
- self-cleavage kobs at 160 uM GlcN6P [2]: < 1e-05 s⁻¹

Variant: G7A C16U U49C C61U
- self-cleavage kobs at 640 uM GlcN6P [1]: < 1e-05 s⁻¹
- self-cleavage kobs at 2500 uM GlcN6P [3]: < 1e-05 s⁻¹

Variant: G7A A42C A52G U55A
- self-cleavage kobs at 640 uM GlcN6P [1]: < 1e-05 s⁻¹

Variant: A6C G38U U54C
- self-cleavage kobs at 640 uM GlcN6P [1]: < 1e-05 s⁻¹

Variant: G7A G32U
- self-cleavage kobs at 640 uM GlcN6P [1]: < 1e-05 s⁻¹
- self-cleavage kobs at 160 uM GlcN6P [2]: < 1e-05 s⁻¹
- self-cleavage kobs at 2500 uM GlcN6P [3]: < 1e-05 s⁻¹
- self-cleavage kobs at 10000 uM GlcN6P [5]: < 1e-05 s⁻¹

Variant: C8G G38U G41A U46G G59A
- self-cleavage kobs at 640 uM GlcN6P [1]: < 1e-05 s⁻¹

Variant: G7U G62A G63U
- self-cleavage kobs at 640 uM GlcN6P [1]: < 1e-05 s⁻¹
- self-cleavage kobs at 160 uM GlcN6P [2]: < 1e-05 s⁻¹

Variant: G7C G9C C11U
- self-cleavage kobs at 640 uM GlcN6P [1]: < 1e-05 s⁻¹
- self-cleavage kobs at 2500 uM GlcN6P [3]: < 1e-05 s⁻¹

Variant: C8A C34U U55C
- self-cleavage kobs at 640 uM GlcN6P [1]: < 1e-05 s⁻¹
- self-cleavage kobs at 160 uM GlcN6P [2]: < 1e-05 s⁻¹

Variant: G62U C71A
- self-cleavage kobs at 40 uM GlcN6P [4]: < 1e-05 s⁻¹
- self-cleavage kobs at 2500 uM GlcN6P [3]: < 1e-05 s⁻¹

Variant: G7A U30C C58U
- self-cleavage kobs at 640 uM GlcN6P [1]: < 1e-05 s⁻¹

Variant: C67U C71U
- self-cleavage kobs at 40 uM GlcN6P [4]: 6.24e-05 ± 6.8e-06 s⁻¹

Variant: C8A A14C A53G
- self-cleavage kobs at 640 uM GlcN6P [1]: < 1e-05 s⁻¹
- self-cleavage kobs at 2500 uM GlcN6P [3]: < 1e-05 s⁻¹

Variant: A6G G35U A42U
- self-cleavage kobs at 640 uM GlcN6P [1]: < 1e-05 s⁻¹

Variant: G59U A64G
- self-cleavage kobs at 40 uM GlcN6P [4]: < 1e-05 s⁻¹

Variant: C61G A64U
- self-cleavage kobs at 40 uM GlcN6P [4]: < 1e-05 s⁻¹
- self-cleavage kobs at 160 uM GlcN6P [2]: < 1e-05 s⁻¹
- self-cleavage kobs at 10000 uM GlcN6P [5]: < 1e-05 s⁻¹

Variant: U65G C68U
- self-cleavage kobs at 40 uM GlcN6P [4]: 5.31e-05 ± 8.4e-06 s⁻¹
- self-cleavage kobs at 640 uM GlcN6P [1]: 0.000304 ± 4.1e-05 s⁻¹
- self-cleavage kobs at 160 uM GlcN6P [2]: 0.000159 ± 3.2e-05 s⁻¹
- self-cleavage kobs at 2500 uM GlcN6P [3]: 0.000758 ± 0.00013 s⁻¹
- self-cleavage kobs at 10000 uM GlcN6P [5]: 0.00155 ± 0.00018 s⁻¹

Variant: G60U C70G
- self-cleavage kobs at 40 uM GlcN6P [4]: < 1e-05 s⁻¹
- self-cleavage kobs at 10000 uM GlcN6P [5]: < 1e-05 s⁻¹

Variant: G60U C70U
- self-cleavage kobs at 40 uM GlcN6P [4]: < 1e-05 s⁻¹
- self-cleavage kobs at 640 uM GlcN6P [1]: < 1e-05 s⁻¹
- self-cleavage kobs at 160 uM GlcN6P [2]: < 1e-05 s⁻¹
- self-cleavage kobs at 10000 uM GlcN6P [5]: < 1e-05 s⁻¹

Variant: G62C G66C
- self-cleavage kobs at 40 uM GlcN6P [4]: < 1e-05 s⁻¹
- self-cleavage kobs at 160 uM GlcN6P [2]: < 1e-05 s⁻¹
- self-cleavage kobs at 2500 uM GlcN6P [3]: < 1e-05 s⁻¹

Variant: G7U U30A G51A
- self-cleavage kobs at 640 uM GlcN6P [1]: < 1e-05 s⁻¹

Variant: A6C A53U U57C
- self-cleavage kobs at 640 uM GlcN6P [1]: < 1e-05 s⁻¹

Variant: A64U C71G
- self-cleavage kobs at 40 uM GlcN6P [4]: < 1e-05 s⁻¹

Variant: A6U A14G G51C G59C
- self-cleavage kobs at 640 uM GlcN6P [1]: < 1e-05 s⁻¹

Variant: C8A C16A
- self-cleavage kobs at 640 uM GlcN6P [1]: < 1e-05 s⁻¹
- self-cleavage kobs at 10000 uM GlcN6P [5]: < 1e-05 s⁻¹

Variant: A6U G9U G51U C58A
- self-cleavage kobs at 640 uM GlcN6P [1]: < 1e-05 s⁻¹
- self-cleavage kobs at 160 uM GlcN6P [2]: < 1e-05 s⁻¹

Variant: A6G A36U G60C C68G
- self-cleavage kobs at 640 uM GlcN6P [1]: < 1e-05 s⁻¹

Variant: C8G C16A
- self-cleavage kobs at 640 uM GlcN6P [1]: < 1e-05 s⁻¹
- self-cleavage kobs at 160 uM GlcN6P [2]: < 1e-05 s⁻¹
- self-cleavage kobs at 2500 uM GlcN6P [3]: < 1e-05 s⁻¹
- self-cleavage kobs at 10000 uM GlcN6P [5]: < 1e-05 s⁻¹

Variant: C8A C10U
- self-cleavage kobs at 640 uM GlcN6P [1]: < 1e-05 s⁻¹
- self-cleavage kobs at 160 uM GlcN6P [2]: < 1e-05 s⁻¹

Variant: G60U G62A C70U
- self-cleavage kobs at 40 uM GlcN6P [4]: < 1e-05 s⁻¹

Variant: C8A C16A U54G C71G
- self-cleavage kobs at 640 uM GlcN6P [1]: < 1e-05 s⁻¹

Variant: G7C C68U
- self-cleavage kobs at 640 uM GlcN6P [1]: < 1e-05 s⁻¹
- self-cleavage kobs at 160 uM GlcN6P [2]: < 1e-05 s⁻¹
- self-cleavage kobs at 2500 uM GlcN6P [3]: < 1e-05 s⁻¹
- self-cleavage kobs at 10000 uM GlcN6P [5]: < 1e-05 s⁻¹

Variant: C61U C70A
- self-cleavage kobs at 40 uM GlcN6P [4]: < 1e-05 s⁻¹

Variant: C58A G63A G66C C67G
- self-cleavage kobs at 40 uM GlcN6P [4]: < 1e-05 s⁻¹
- self-cleavage kobs at 10000 uM GlcN6P [5]: < 1e-05 s⁻¹

Variant: A6C A15G A52U C67U
- self-cleavage kobs at 640 uM GlcN6P [1]: < 1e-05 s⁻¹

Variant: A6U G38A A52U G60C
- self-cleavage kobs at 640 uM GlcN6P [1]: < 1e-05 s⁻¹

Variant: G7C U45G U56G
- self-cleavage kobs at 640 uM GlcN6P [1]: < 1e-05 s⁻¹
- self-cleavage kobs at 10000 uM GlcN6P [5]: < 1e-05 s⁻¹

Variant: C8G G38C G62C A64U
- self-cleavage kobs at 640 uM GlcN6P [1]: < 1e-05 s⁻¹

Variant: C58U A64G C70A
- self-cleavage kobs at 40 uM GlcN6P [4]: < 1e-05 s⁻¹

Variant: G7A A12U U47A G59C
- self-cleavage kobs at 640 uM GlcN6P [1]: < 1e-05 s⁻¹
- self-cleavage kobs at 10000 uM GlcN6P [5]: < 1e-05 s⁻¹

Variant: G7A G37A
- self-cleavage kobs at 640 uM GlcN6P [1]: < 1e-05 s⁻¹
- self-cleavage kobs at 160 uM GlcN6P [2]: < 1e-05 s⁻¹
- self-cleavage kobs at 10000 uM GlcN6P [5]: < 1e-05 s⁻¹

Variant: C8A G44C U46A
- self-cleavage kobs at 640 uM GlcN6P [1]: < 1e-05 s⁻¹
- self-cleavage kobs at 2500 uM GlcN6P [3]: < 1e-05 s⁻¹

Variant: C8G A48U G63C C71A
- self-cleavage kobs at 640 uM GlcN6P [1]: < 1e-05 s⁻¹

Variant: G7A C11G U46G U54G A64U
- self-cleavage kobs at 640 uM GlcN6P [1]: < 1e-05 s⁻¹
- self-cleavage kobs at 2500 uM GlcN6P [3]: < 1e-05 s⁻¹

Variant: C61U C68A
- self-cleavage kobs at 40 uM GlcN6P [4]: < 1e-05 s⁻¹
- self-cleavage kobs at 10000 uM GlcN6P [5]: < 1e-05 s⁻¹

Variant: G62C C71A
- self-cleavage kobs at 40 uM GlcN6P [4]: < 1e-05 s⁻¹
- self-cleavage kobs at 640 uM GlcN6P [1]: < 1e-05 s⁻¹
- self-cleavage kobs at 160 uM GlcN6P [2]: < 1e-05 s⁻¹
- self-cleavage kobs at 2500 uM GlcN6P [3]: < 1e-05 s⁻¹

Variant: C8G C58A U65G C71A
- self-cleavage kobs at 640 uM GlcN6P [1]: < 1e-05 s⁻¹

Variant: C8G G63C C70A
- self-cleavage kobs at 640 uM GlcN6P [1]: < 1e-05 s⁻¹

Variant: A6C G37U U49A
- self-cleavage kobs at 640 uM GlcN6P [1]: < 1e-05 s⁻¹
- self-cleavage kobs at 10000 uM GlcN6P [5]: < 1e-05 s⁻¹

Variant: A6U G9U U31G C67G
- self-cleavage kobs at 640 uM GlcN6P [1]: < 1e-05 s⁻¹

Variant: G59U
- self-cleavage kobs at 40 uM GlcN6P [4]: < 1e-05 s⁻¹

Variant: A6G A39U
- self-cleavage kobs at 640 uM GlcN6P [1]: 8.14e-05 ± 1.2e-05 s⁻¹
- self-cleavage kobs at 160 uM GlcN6P [2]: 2.95e-05 ± 1.1e-05 s⁻¹
- self-cleavage kobs at 2500 uM GlcN6P [3]: 0.000176 ± 2.3e-05 s⁻¹
- self-cleavage kobs at 10000 uM GlcN6P [5]: 0.000239 ± 3.2e-05 s⁻¹

Variant: G63U U65G
- self-cleavage kobs at 40 uM GlcN6P [4]: < 1e-05 s⁻¹
- self-cleavage kobs at 640 uM GlcN6P [1]: < 1e-05 s⁻¹
- self-cleavage kobs at 160 uM GlcN6P [2]: < 1e-05 s⁻¹
- self-cleavage kobs at 2500 uM GlcN6P [3]: < 1e-05 s⁻¹
- self-cleavage kobs at 10000 uM GlcN6P [5]: < 1e-05 s⁻¹
